# The other results are listed elsewhere or left out.
# Columns and labels:
# HSkMC = human skeletal muscle cells; experiment: cytotoxicity call (relative viability < 0.9); conditions: 10 µM
# HepG2 = experiment: cytotoxicity call (relative viability < 0.9); conditions: 10 µM
# S. aureus RN4220 = experiment: growth inhibition call (relative growth <= 0.2); conditions: 50 µM
SMILES,cytotoxicity call (HSkMC),cytotoxicity call (HepG2),growth inhibition call (S. aureus RN4220)
O=C(N[C@@H](c1ccccc1)c1ccc2ccccc2n1)C1CCN(Cc2ccc(Cl)c(Cl)c2)CC1,inactive,inactive,inactive
c1cnc2nc[nH]c2c1,inactive,inactive,inactive
CCC(C(C)O)n1ncn(-c2ccc(N3CCN(c4ccc(OCC5COC(Cn6cncn6)(c6ccc(F)cc6F)C5)cc4)CC3)cc2)c1=O (stereo unspecified),inactive,active,inactive
Cc1cc(C)c2nnc(SCC(=O)O)n2n1,inactive,inactive,inactive
C[C@H]1CCCCO[C@@H](CN(C)C(=O)Nc2ccc(C(F)(F)F)cc2)[C@@H](C)CN([C@@H](C)CO)C(=O)c2cc(NC(=O)c3ccccc3)ccc2O1,inactive,inactive,inactive
Cc1ccccc1S(=O)(=O)N1C[C@@H](O)COC[C@@H]2O[C@@H](CC(=O)NCc3ccccc3Cl)CC[C@H]21,inactive,inactive,inactive
C[C@@H]1CN([C@H](C)CO)C(=O)c2cccc(NC(=O)NC3CCCCC3)c2O[C@@H]1CN(C)Cc1ccc(-c2ccccc2)cc1,inactive,inactive,inactive
Cc1ccc(S(=O)(=O)Nc2ccc3c(c2)C(=O)N([C@H](C)CO)C[C@@H](C)[C@@H](CN(C)S(C)(=O)=O)OCCCC[C@H](C)O3)cc1,inactive,inactive,inactive
Cc1noc(C)c1S(=O)(=O)N(C)C[C@@H]1Oc2ccc(NC(=O)Nc3ccc4c(c3)OCO4)cc2CC(=O)N([C@H](C)CO)C[C@H]1C,inactive,inactive,inactive
C[C@H]1CN([C@@H](C)CO)C(=O)c2cc(NC(=O)Nc3cccc4ccccc34)ccc2O[C@@H]1CN(C)C(=O)Nc1ccc(C(F)(F)F)cc1,inactive,inactive,inactive
CCc1cc(=O)oc2c(C)c(O[C@@H]3O[C@H](CO)[C@@H](O)[C@H](O)[C@H]3O)ccc12,active,inactive,inactive
COc1ccc(S(=O)(=O)N(C)C[C@H]2Oc3ccc(NS(=O)(=O)c4cn(C)cn4)cc3CC(=O)N([C@@H](C)CO)C[C@H]2C)cc1,inactive,inactive,inactive
CCOC(=O)/C=C/C(=O)N1CCC=CC1=O,active,active,inactive
C[C@H](CO)N1C[C@H](C)[C@@H](CN(C)S(C)(=O)=O)Oc2c(NC(=O)Nc3ccccc3)cccc2C1=O,inactive,inactive,inactive
C[C@@H]1CN([C@H](C)CO)C(=O)Cc2cc(NC(=O)Cc3ccccc3)ccc2O[C@H]1CN(C)C(=O)Nc1ccc(C(F)(F)F)cc1,inactive,inactive,inactive
COc1ccc(NC(=O)N(C)C[C@@H]2Oc3c(NC(=O)Nc4cccc5ccccc45)cccc3C(=O)N([C@H](C)CO)C[C@@H]2C)cc1,inactive,inactive,inactive
COc1ccc(S(=O)(=O)Nc2cccc3c2O[C@@H](CN(C)S(=O)(=O)c2cn(C)cn2)[C@@H](C)CN([C@@H](C)CO)C3=O)cc1,inactive,inactive,inactive
Cc1csc2sc(C(=O)Oc3ccc(Cl)cc3)c(C)c12,inactive,inactive,inactive
CC(C)NC(=O)Nc1ccc2c(c1)C(=O)N([C@@H](C)CO)C[C@H](C)[C@H](CN(C)C(=O)NC1CCCCC1)O2,inactive,inactive,inactive

SMILES,cytotoxicity call (HSkMC),cytotoxicity call (HepG2),growth inhibition call (S. aureus RN4220)
CNC(=O)Cc1ccccc1,inactive,inactive,inactive
Cc1ccc(S(=O)(=O)N(C)C[C@@H]2Oc3c(NC(=O)c4cnccn4)cccc3C(=O)N([C@@H](C)CO)C[C@H]2C)cc1,inactive,inactive,inactive
CC(C)OC(=O)[C@@H](C)Nc1n[nH]c(=O)[nH]c1=O,inactive,inactive,inactive
CN1CCN(C(=O)C[C@@H]2CC[C@H]3[C@@H](COC[C@@H](O)CN3Cc3ccc(Oc4ccccc4)cc3)O2)CC1,inactive,inactive,inactive
C[C@H](CO)N1C[C@H](C)[C@H](CN(C)S(=O)(=O)c2cn(C)cn2)Oc2ccc(NC(=O)Nc3ccc4c(c3)OCO4)cc2CC1=O,inactive,inactive,inactive
COc1ccc(CNC(=S)NCCO)cc1,inactive,inactive,inactive
C[C@@H]1CCCCO[C@@H](CN(C)C(=O)CCCN(C)C)[C@H](C)CN([C@@H](C)CO)C(=O)c2cc(NS(=O)(=O)c3cn(C)cn3)ccc2O1,inactive,inactive,inactive
C[C@@H]1CCCCO[C@@H](CN(C)C(=O)Nc2ccccc2)[C@@H](C)CN([C@H](C)CO)C(=O)c2cc(NC(=O)Nc3ccc4c(c3)OCO4)ccc2O1,inactive,inactive,inactive
CN1CCCN(C(=O)c2ncn3c(C4CCN(S(C)(=O)=O)CC4)ccnc23)CC1,inactive,inactive,inactive
C=CCOC(=O)[C@@H]1[C@H]2C(=O)O[C@H](c3ccccc3)[C@H](c3ccccc3)N2[C@H](c2ccc(OCCOC(=O)[C@@H]3C[C@@H]4C(=O)NCC(=O)N4[C@@H]3c3cccc(OCCO)c3)cc2)[C@@]12C(=O)Nc1ccccc12,inactive,inactive,inactive
O=C1COC(=O)N1C1CCNCC1,inactive,inactive,inactive
Cc1nc[nH]c1CN(C)[C@H](C)C(=O)N(C)C,inactive,inactive,inactive
COc1cccc(NC(=O)N(C)C[C@H]2Oc3cc(C#Cc4ccncc4)ccc3S(=O)(=O)N([C@H](C)CO)C[C@@H]2C)c1,inactive,active,inactive
Cc1cncc2cccc(S(=O)(=O)N3CC[C@H](N(C/C=C/c4ccc(Br)cc4)C/C=C/c4ccc(Br)cc4)C3)c12,inactive,inactive,inactive
C[C@@H]1CN([C@@H](C)CO)C(=O)c2cc(NC(=O)c3ccccc3)ccc2O[C@@H](C)CCCCO[C@@H]1CN(C)S(=O)(=O)c1ccc(Cl)cc1,inactive,inactive,inactive
C[C@@H]1CN([C@@H](C)CO)C(=O)c2cc(NS(=O)(=O)c3ccc(F)cc3)ccc2O[C@H]1CN(C)Cc1ccc(Oc2ccccc2)cc1,inactive,inactive,inactive
C[C@@H]1CN([C@@H](C)CO)C(=O)c2cccc(NC(=O)c3nc4ccccc4s3)c2O[C@H]1CN(C)Cc1ccc(Cl)c(Cl)c1,inactive,inactive,inactive
C[C@H]1CN([C@@H](C)CO)C(=O)c2cccc(NC(=O)Nc3cccc4ccccc34)c2O[C@H]1CN(C)Cc1ccc(C(=O)Nc2ccccc2N)cc1,inactive,active,inactive

# Source: the antibiotic and cytotoxicity screens of Wong et al. (2023)
